Among all 340,000 compounds or so, about 6,900 (2%) were called active. No stated cut-off is given here; in the data, active means inhibition above about 30%; inactive means below that, where a call was filed. The list shows a part of the results, in another mix than the full data. Where no call is shown, the source filed none.

Chain of UniProt P14416 (P14416 whole entry, looked up): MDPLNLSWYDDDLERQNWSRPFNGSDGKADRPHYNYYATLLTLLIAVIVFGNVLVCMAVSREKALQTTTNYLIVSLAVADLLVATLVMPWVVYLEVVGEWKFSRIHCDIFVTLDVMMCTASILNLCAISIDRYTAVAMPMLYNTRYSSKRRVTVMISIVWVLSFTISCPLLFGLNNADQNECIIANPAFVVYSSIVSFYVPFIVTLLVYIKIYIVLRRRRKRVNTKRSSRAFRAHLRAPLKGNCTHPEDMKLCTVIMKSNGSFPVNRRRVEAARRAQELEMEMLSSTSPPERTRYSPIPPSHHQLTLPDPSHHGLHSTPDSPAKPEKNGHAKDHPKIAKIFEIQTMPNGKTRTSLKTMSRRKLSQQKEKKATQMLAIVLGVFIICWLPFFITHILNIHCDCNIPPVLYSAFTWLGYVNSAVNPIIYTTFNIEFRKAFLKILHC

The target of this assay is D(2) dopamine receptor (Homo sapiens) (UniProt P14416). Briefly: HTS Assay for Allosteric Antagonists of the Human D2 Dopamine Receptor: Primary Screen for Antagonists. Further: 0% is about no effect. Conditions: HEK293 TREx D2 cells, calcium flux, dopamine EC80; at 10 µM; stronger effect = higher value. The gist of the method:
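Read-out: kinetic calcium fluorescence (1 cycle/s) in inducible HEK293 T-REx D2 cells after an EC80 dopamine addition that followed 180 s compound preincubation. Loss of the dopamine response indicates antagonism.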
A general note: Calcium assays in cells follow changes in intracellular calcium, usually with a dye or a luminescent sensor.
By inhibition is commonly meant the relative decrease from the control value, in per cent. Consider `Cc1cc2oc(C(=O)Nc3c(C(=O)Nc4ccccc4)oc4ccccc34)cc(=O)c2cc1C`, for which the inhibition is 5.62%.

As for `Cc1cccn2c(=O)c(C(=O)NCCCN3CCCCC3C)c(O)nc12` (stereo unspecified), the inhibition came to 0.838%.

Consider `O=C(Cn1ncc2c1-c1ccccc1OC2)N1CCN(c2ccccc2F)CC1`, for which the inhibition was -3.28%.

Take `COc1ccccc1CNC(=O)C1CCCN(S(=O)(=O)c2ccc3c(c2)CCCN3C(C)=O)C1` (stereo unspecified): the inhibition is -3.09%.

In the case of `CC1CCC(NC(=O)c2ccc3c(c2)N(Cc2ccccc2)C(=O)c2ccccc2S3=O)CC1` (stereo unspecified), the inhibition amounted to 26.3%.

For the compound `CCOC(=O)c1c(C)[nH]c(CCC(=O)Nc2cc(C)ccc2OC)c1C`, the inhibition is -1.25%.

On to `CCOC(=O)c1cccc(NC(=O)CN2C(=O)c3ccccc3Sc3ncccc32)c1`, for which the inhibition was -4.33%.

Consider `COc1cc(NC(=O)CC2C(=O)N(c3ccc(Cl)cc3)C(=O)N2Cc2cccs2)cc(OC)c1` (stereo unspecified), for which the inhibition was determined as 15.3%.

On to `Cc1ccc(C(=O)NCc2ccc(N(C)C)cc2)cc1NC(=O)c1nsc2ccccc12`, for which the inhibition was -5.09%.

As to `COc1ccc(CNC(=O)c2cnc3sc(N4CCCC4)nn3c2=O)cc1OC`, the inhibition came out at 4.75%.

On to `O=C(CSc1c2c(nc3ccc(Cl)cc13)CCCC2)N1CCN(c2cccc(Cl)c2)CC1`, for which the inhibition worked out at 6.19%.

As to `Cc1ccc2c(c1)C(c1ccc(F)cc1)N(C(=O)COc1ccc(Cl)cc1Cl)CC(=O)N2` (stereo unspecified), the inhibition was found to be 3.12%.

For `Cc1cc2ncn(CCCCOc3ccccc3)c2cc1C`, the inhibition was 7.25%.

Regarding `COc1cccc2cc(C(C)OC(=O)Nc3ccc(C)cc3)oc12` (stereo unspecified), the inhibition is active: 32.2%.

As to `Cc1ccc(N2CCN(CC3CC=CCC3)CC2)cc1` (stereo unspecified), the inhibition is active: 36.5%.

As to `CCc1nn2c(=O)cc(COC(=O)c3cccc(NC(=O)c4ccccc4Cl)c3)nc2s1`, the inhibition stood at 5.08%.

With `O=[N+]([O-])c1cc([N+](=O)[O-])c(Oc2cccnc2Br)cc1NN1CCCCC1`, the inhibition was active: 34.8%.

In the case of `COC(=O)c1ccc(CN2CCCC(CO)(Cc3ccccc3F)C2)cc1` (stereo unspecified), the inhibition is active: 83.7%.

As to `Cc1ccc(CNC(=O)C2CCCN(S(=O)(=O)c3cccc4nsnc34)C2)cc1` (stereo unspecified), the inhibition was -1.7%.

For `CCc1ccc2c(c1)c(=O)c(S(=O)(=O)c1ccc(F)cc1)cn2CC(=O)Nc1ccc(C)cc1C`, the inhibition came out at 9.55%.

Consider `CCOC(=O)c1ccc(Nc2c(-c3ccc(O)c(OC)c3)nc3nc[nH]n23)cc1`, for which the inhibition amounted to 9.86%.

In the case of `Cc1cc(F)ccc1S(=O)(=O)NCC(c1ccco1)S(=O)(=O)c1cccs1` (stereo unspecified), the inhibition was -0.593%.

On to `CC1Cc2cc(S(=O)(=O)N3CCN(c4ccccc4F)CC3)ccc2N1C(=O)C1CCC1` (stereo unspecified), for which the inhibition was -7.89%.

For `Cc1cc(C)c(S(=O)(=O)N/N=C/c2ccc3c(c2)OCO3)c(C)c1`, the inhibition is active: 73.8%.

Take `Cc1cc2nnc(SCC(=O)Nc3ccc(F)c(Cl)c3)n2c2ccccc12`: the inhibition was -0.245%.

In the case of `CC(=O)c1c(C)nc2nc(-c3ccccc3)nn2c1C`, the inhibition stood at 27.5%.

These data come from PubChem BioAssay AID485344 (National Center for Advancing Translational Sciences (NCATS), 2010).
